± gives the standard deviation. This is a selection; strong and weak results do not stand in their true shares.
Test system: MIWI (PIWIL1) piRISC loaded with L1MC piRNA (30 nt)
Test: pre-steady-state target cleavage rate (min^-1); MIWI and MILI are mouse PIWI proteins and EfPiwi is from a freshwater sponge; tags in brackets are library labels; higher = faster piRNA-guided slicing of the target
Settings: guide: L1MC piRNA 5'p-UAACUAAAUACUAUGCAAGCUGUAGGUCCU
How it was run: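 The pre-steady-state cleavage rate was obtained by Cleave-'n-Seq with a burst-and-steady-state fit. A transcribed, DNA-blocked target RNA library (0.1 nM) was mixed with 1 nM active affinity-purified piRISC carrying one synthetic guide, with or without 500 nM GTSF1 partner protein, in HEPES–potassium acetate buffer at 33 °C for 0–8 or 0–960 min. Uncleaved targets were sequenced and normalised to depth and to weakly complementary targets, with three trials pooled and k3 capped at 0.0001 min^-1.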

[1] = auxiliary factor: 500 nM mouse GTSF1
[2] = auxiliary factor: none (no GTSF1)

Row | Sequence | pre-steady-state target cleavage rate [1] | pre-steady-state target cleavage rate [2]
1 | AGGACCUACAGCAUGCAUAGUAUUAAGUUA | 0.942 ± 0.077 | 0.0212 ± 0.0056
2 | UCCUGGAUCAGCAUGGAUAGUAUUUAGUUA | 0.623 ± 0.072 | 0.00932 ± 0.0033
3 | UCCUGGAUCAGCAAGCAUAGUAUUUAGUUA | 0.342 ± 0.047 | 0.0035 ± 0.0023
4 | UGGACCUAGACCUUGCAUAGUAUUUAGUUA | 0.661 ± 0.046 | 0.0184 ± 0.0043
5 | UCGACCUACAGCUUGCAUAGUAUUUAGCUA | 0.0909 ± 0.023 | 0.00811 ± 0.0027
6 | UCCUGGAUGUGCGUUGCAUAGUAUUUAGUUA | 0.28 ± 0.032 | 0.00987 ± 0.0029
7 | UCGACCUAGAGCUUGCAUAGUAUUUAGUUA | 1.07 ± 0.072 | 0.0649 ± 0.011
8 | AGGACCUACAGUUGCAUAGUAUUUAGUUA | 0.988 ± 0.07 | 0.0102 ± 0.0034
9 | UCCACCUACAGCUUGCAUAGUAUUUAGAAA | 0.451 ± 0.066 | 0.00492 ± 0.0031
10 | UCCUGGAUGAGCUUGCAUAGUAUUUUGAAA | 0.174 ± 0.033 | 0.00589 ± 0.0026
11 | UCCUGGUACAGGUUGGAUAGUAUUUAGUUA | 0.717 ± 0.096 | 0.0166 ± 0.0038
12 | UCCUGCAACACCUUGCAUAGUAUUUAGUUA | 0.611 ± 0.092 | 0.0148 ± 0.004
13 | UCCACCUACAGCUUGCUUUGUAUUUAGUUA | 0.184 ± 0.013 | 0.00506 ± 0.00096
14 | UCCUGGAUGAGCUUGCAUAGUAUUUACGUUA | 0.515 ± 0.056 | 0.0216 ± 0.0057
15 | UCCUGGAUGUGCUGUGCAUAGUAUUUAGUUA | 0.189 ± 0.022 | 0.0101 ± 0.0031
16 | UCCUGGAUGUCGUUCGCAUAGUAUUUAGUUA | 0.0145 ± 0.0039 | 0.00279 ± 0.0023
17 | UCCUGGAUGUGCUUGCAAAGUAUUUAGUUA | 0.175 ± 0.016 | 0.0227 ± 0.0059
18 | UCCUGGAUCAAGCUUGCAUAGUAUUUAGUUA | 1.25 ± 0.063 | 0.0662 ± 0.014
19 | UCCUCCUACAGCUUGCAAUGUAUUUAGUUA | 0.517 ± 0.031 | 0.00506 ± 0.0019
20 | UCGACCUACAGCUUCAUAGUAUUUAGUUA | 1.14 ± 0.042 | 0.0128 ± 0.0025

Row | Sequence | pre-steady-state target cleavage rate [1] | pre-steady-state target cleavage rate [2]
21 | UCCUGCUACAGCUUGCAUAGAAUUAAGUUA | 0.197 ± 0.026 | 0.00859 ± 0.0031
22 | UCGUCCUACAGCUUGCAUUGUAUUUAGUUA | 1.08 ± 0.041 | 0.0316 ± 0.007
23 | UGGUCCUACAGCUUGCAUAGUAUUUUCAAA | 0.258 ± 0.04 | 0.00588 ± 0.0032
24 | UCGAGCUACAGCUUGCAUACUAUUUAGUUA | 0.385 ± 0.018 | 0.0331 ± 0.0074
25 | AGGACCUACAGCUUGCAUAGUAUUUGUUA | 0.51 ± 0.055 | 0.00548 ± 0.0028
26 | UCCACCUACAGCUUGCAUAGUAUUUUGAUA | 0.365 ± 0.04 | 0.011 ± 0.0036
27 | UCGACCUACAGCUUGCAUAGUAUUUAGAAA | 0.662 ± 0.066 | 0.0117 ± 0.0047
28 | UCCACCUACAGCUUGCAAAGUAUAUAGUUA | 0.468 ± 0.045 | 0.0135 ± 0.0031
29 | UCCUGCUACAGCUUGCAUAGUAGUUUAGUUA | 0.344 ± 0.028 | 0.00542 ± 0.0022
30 | UCCUGGUAGUCCUUGCAUAGUAUUUAGUUA | 0.0925 ± 0.011 | 0.0106 ± 0.0024
31 | UCCUCCUAGAGCUUGGAUAGUAUUUAGUUA | 0.982 ± 0.06 | 0.037 ± 0.0057
32 | UCCUGGUACAGCUUGUAUAGUAUUUAGUUA | 0.869 ± 0.041 | 0.0347 ± 0.0088
33 | UCCUGGAUGAGCUUGCAUAGUAUAUUGUUA | 0.165 ± 0.021 | 0.0157 ± 0.004
34 | UGGACCUAGUGCUUGCAUAGUAUUUAGAAA | 0.0381 ± 0.0062 | 0.0041 ± 0.0021
35 | UCCUGGAACAGCUUGCAUAGUUUUUAGUUA | 0.333 ± 0.021 | 0.0449 ± 0.0097
36 | AGGACCUACUCCUUGCAUAGUAUUUAGUUA | 1.21 ± 0.036 | 0.0563 ± 0.0083
37 | UCCUGGAUCAGCUUGCAUCGUAUUUAGUUA | 0.327 ± 0.02 | 0.032 ± 0.0077
38 | UCCUGGAACAGCUUGCAUAGAAUUUAGUAA | 0.25 ± 0.045 | 0.014 ± 0.0044
39 | UCCUGGAACACCUUGCAUAGUAUUUAGAAA | 0.143 ± 0.029 | 0.00306 ± 0.003
40 | UCCUGGAUCAGCUUGCAUAGUAUAAUGAAA | 0.0792 ± 0.025 | 0.00385 ± 0.0031

Row | Sequence | pre-steady-state target cleavage rate [1] | pre-steady-state target cleavage rate [2]
41 | UCCUGGAUGAGCUUGCAUAGAAUUUAGUUA | 0.204 ± 0.02 | 0.0171 ± 0.0057
42 | UCGACCUACAGCUUGUAUAGUAUUUAGUUA | 1.7 ± 0.074 | 0.0725 ± 0.015
43 | UCCUCCUACAGCUCUGCAUAGUAUUUAGUUA | 1.03 ± 0.044 | 0.0182 ± 0.0041
44 | AGGACCUACAGCUUCCAUUGUAUUUAGUUA | 0.247 ± 0.022 | 0.00282 ± 0.0018
45 | UCCUGGAUGAGCUUGCAUAGAAUUAAGUUA | 0.0363 ± 0.0098 | 0.00457 ± 0.0032
46 | UCCUGGUACACGUUGCAUAGUAUUUAGUUA | 0.226 ± 0.05 | 0.00313 ± 0.0025
47 | UCCUGCUACAGCUAGCAAAGUAUUUAGUUA | 1.09 ± 0.084 | 0.00787 ± 0.0023
48 | AGGACCUACAGCUUGCAUAGUAUUUAGUGUA | 0.543 ± 0.04 | 0.0657 ± 0.012
49 | UCCUCCUACUGCUUGCUUAGUAUUUAGUUA | 1.06 ± 0.04 | 0.03 ± 0.0053
50 | UCCACACUACAGCUUGCAUAGUAUUUAGUUA | 0.683 ± 0.047 | 0.0447 ± 0.0063
51 | UCCUGGUACAGCUUGCAUUGUAUUUACUUA | 0.0968 ± 0.025 | 0.0136 ± 0.0043
52 | UCCUGGUACAGCUUGCAUAGUAUUUACAAA | 0.151 ± 0.025 | 0.00333 ± 0.0019
53 | UCCUGGAUCAGCUUGCAUAGUAAUUACUUA | 0.116 ± 0.018 | 0.00861 ± 0.0025
54 | UCCUGCUACAGCUUGGAUAGUAUUUACUUA | 0.0962 ± 0.026 | 0.00661 ± 0.0023
55 | UCGACCUACACGAUGCAUAGUAUUUAGUAA | 0.732 ± 0.059 | 0.00229 ± 0.0023
56 | UCGACCUACAGCUAGCAUUGUAUUUAGUUA | 0.822 ± 0.045 | 0.00769 ± 0.0019
57 | UCCUGGAUGUGCUUGCAUAGUAUUUAGAAA | 0.0621 ± 0.01 | 0.00508 ± 0.0024
58 | UCCUGGAUCAGCUAGCAUAGUAUUUACUUA | 0.391 ± 0.026 | 0.009 ± 0.0021
59 | UCCUGGAUCUGCUUGCUUAGUAUUUAGUUA | 0.366 ± 0.049 | 0.0141 ± 0.0045
60 | UCGUCCUACAGCUUGCAUAGUAUUUUCAAA | 0.386 ± 0.043 | 0.00313 ± 0.0025
